These are yes or no findings as the source states them, for the method shown. Binding seen in cells or lysates may run through a third protein. Some entries that bind do so weakly or less than the wild type.

By UniProt entry, the sequences of proteins in these tests, tags left out. Where a name states a change or a piece, a line headed by the entry shows the natural chain unless it says otherwise.
UniProt Q49AJ0: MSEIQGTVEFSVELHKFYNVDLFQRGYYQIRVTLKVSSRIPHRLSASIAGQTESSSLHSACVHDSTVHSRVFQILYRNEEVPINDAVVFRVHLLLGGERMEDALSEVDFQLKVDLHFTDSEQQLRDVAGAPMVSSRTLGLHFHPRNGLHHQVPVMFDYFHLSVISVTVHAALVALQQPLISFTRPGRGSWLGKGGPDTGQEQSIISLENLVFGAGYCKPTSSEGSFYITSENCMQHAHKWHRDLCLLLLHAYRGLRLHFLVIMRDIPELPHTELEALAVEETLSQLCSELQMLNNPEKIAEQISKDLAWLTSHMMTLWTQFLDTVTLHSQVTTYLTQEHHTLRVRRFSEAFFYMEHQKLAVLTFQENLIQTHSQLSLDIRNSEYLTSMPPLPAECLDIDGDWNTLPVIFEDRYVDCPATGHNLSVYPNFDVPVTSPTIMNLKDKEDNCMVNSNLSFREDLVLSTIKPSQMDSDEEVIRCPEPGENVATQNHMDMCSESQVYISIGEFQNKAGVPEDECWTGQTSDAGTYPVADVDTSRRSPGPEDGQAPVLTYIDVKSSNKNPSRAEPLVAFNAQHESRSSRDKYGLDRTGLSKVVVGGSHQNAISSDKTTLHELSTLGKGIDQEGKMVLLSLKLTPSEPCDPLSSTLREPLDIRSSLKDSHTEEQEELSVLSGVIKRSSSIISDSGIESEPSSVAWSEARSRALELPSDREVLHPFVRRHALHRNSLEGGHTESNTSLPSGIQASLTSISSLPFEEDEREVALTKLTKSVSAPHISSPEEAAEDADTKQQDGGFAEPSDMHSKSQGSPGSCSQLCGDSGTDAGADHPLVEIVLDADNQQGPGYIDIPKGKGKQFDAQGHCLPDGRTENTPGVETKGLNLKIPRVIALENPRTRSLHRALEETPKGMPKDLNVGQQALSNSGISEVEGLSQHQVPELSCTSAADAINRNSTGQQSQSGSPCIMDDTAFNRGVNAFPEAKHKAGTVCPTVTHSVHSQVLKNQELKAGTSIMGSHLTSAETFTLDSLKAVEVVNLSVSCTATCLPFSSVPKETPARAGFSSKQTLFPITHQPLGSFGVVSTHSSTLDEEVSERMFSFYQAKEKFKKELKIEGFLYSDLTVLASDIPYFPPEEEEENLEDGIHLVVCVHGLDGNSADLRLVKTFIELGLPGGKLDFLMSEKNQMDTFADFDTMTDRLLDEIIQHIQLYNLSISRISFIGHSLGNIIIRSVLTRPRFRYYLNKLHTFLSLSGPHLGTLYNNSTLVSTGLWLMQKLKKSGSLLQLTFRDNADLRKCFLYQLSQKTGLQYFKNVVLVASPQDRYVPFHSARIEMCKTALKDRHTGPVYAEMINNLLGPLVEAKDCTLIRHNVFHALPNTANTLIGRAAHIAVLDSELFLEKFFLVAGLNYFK
UniProt Q92993: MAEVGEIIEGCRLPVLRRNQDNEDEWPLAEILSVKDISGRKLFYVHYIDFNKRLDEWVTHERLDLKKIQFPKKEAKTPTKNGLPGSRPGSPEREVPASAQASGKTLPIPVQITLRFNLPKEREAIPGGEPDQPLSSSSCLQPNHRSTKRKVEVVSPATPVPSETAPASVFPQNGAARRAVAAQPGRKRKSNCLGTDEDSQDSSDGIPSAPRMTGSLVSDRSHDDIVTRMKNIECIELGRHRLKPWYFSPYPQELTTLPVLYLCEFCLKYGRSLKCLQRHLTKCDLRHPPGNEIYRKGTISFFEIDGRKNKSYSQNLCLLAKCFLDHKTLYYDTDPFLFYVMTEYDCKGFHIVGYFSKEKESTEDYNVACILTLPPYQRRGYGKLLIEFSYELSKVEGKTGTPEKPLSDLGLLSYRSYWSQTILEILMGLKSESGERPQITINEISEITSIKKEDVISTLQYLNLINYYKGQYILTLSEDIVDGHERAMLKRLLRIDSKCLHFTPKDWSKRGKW

The target of experiment [1] is GST-FAM135B fusion protein (UniProt Q49AJ0). In words: pull-down; GST-FAM135B on glutathione beads incubated with lysates of HEK-293T cells expressing MYC-TIP60 full length or truncated fragments; GST pull-down kit (Bersin bio); western blot; only the target purified. (A western blot detects proteins with antibodies after separation by electrophoresis.)
In experiment [2] the target is sequence similarity 135 family member B (FAM135B), endogenous (human (endogenous in KYSE510)) (UniProt Q49AJ0). In words: co-IP; endogenous proteins in KYSE510 lysate (RIPA); IP with anti-FAM135B or anti-TIP60, IgG as control; protein A/G Sepharose, NT-2 buffer (50 mM Tris-HCl pH 7.4, 150 mM NaCl, 1 mM MgCl2, .25% NP40), 4°C overnight.
The target of experiment [3] is FAM135B-FLAG (UniProt Q49AJ0). Put plainly: co-IP; KYSE30 cells stably expressing FAM135B-FLAG; IP with anti-FLAG, anti-FAM135B or anti-TIP60, IgG as control; protein A/G Sepharose, NT-2 buffer, 4°C overnight.
The target of experiment [4] is Tat-interactive protein 60-kDa (TIP60), endogenous (human (endogenous in KYSE30 and KYSE510)) (UniProt Q92993). In words: proximity ligation; Duolink PLA in KYSE30-FAM135B cells, FAM135B and TIP60; resting conditions and after BLM treatment (signal significantly reduced).
Experiment [5] has the same target. Put plainly: co-IP; KYSE30 cells stably expressing FAM135B-FLAG; IP with anti-FLAG, anti-FAM135B or anti-TIP60, IgG as control; protein A/G Sepharose, NT-2 buffer, 4°C overnight.
The target is the same in experiment [6]. Put plainly: co-IP; endogenous proteins in KYSE510 lysate (RIPA); IP with anti-FAM135B or anti-TIP60, IgG as control; protein A/G Sepharose, NT-2 buffer (50 mM Tris-HCl pH 7.4, 150 mM NaCl, 1 mM MgCl2, .25% NP40), 4°C overnight.

As for “MYC-TIP60 Δ4 (285-513 aa, including the AcCoA and NR domain) (from UniProt Q92993 285-513) (domain or fragment)”, the binding entry in experiment [1] is on record as “no binding”.

Consider “MYC-TIP60 Δ1 (1-258 aa, containing the chromodomain, ChD) (from UniProt Q92993 1-258) (domain or fragment)”, for which the binding entry in experiment [1] is “binds”.

Take “Tat-interactive protein 60-kDa (TIP60), endogenous (from UniProt Q92993 1-513)”: the binding result in experiment [2] and in experiment [3] was “binds” each time.

On to “MYC-TIP60 full length (FL, 1-513 aa) (from UniProt Q92993 1-513)”, for which the binding entry in experiment [1] was “binds”.

Turning to “MYC-TIP60 Δ3 (158-395 aa, including the ZinF and acetyl-CoA-binding domain, AcCoA) (from UniProt Q92993 158-395) (domain or fragment)”, in experiment [1], the binding result was “no binding”.

Take “MYC-TIP60 Δ2 (69-290 aa, harbouring the Zinc finger domain, ZinF) (from UniProt Q92993 69-290) (domain or fragment)”: the binding result in experiment [1] is “no binding”.

For “FAM135B-FLAG (from UniProt Q49AJ0 1-1406)”, the binding entry in experiment [4] and in experiment [5] was “binds” each time.

As to “sequence similarity 135 family member B (FAM135B), endogenous (from UniProt Q49AJ0 1-1406)”, the binding entry in experiment [6] is recorded as “binds”.

(Values after paper PMC9386324.)
